# Some of the results follow.
# B1: Epa22 (Candida glabrata) (protein)
# chain: MGSSHHHHHHSSGLVPRGSHMKRALSSQNPFGYPIGCSPQSTNVIPGLTMELYSYPIVSGTPPNCYDASYVDPEYPRTGYLKRKMIGKSTGVTGSLNYKFSVEKACMVKYGNLPAGYNYNEPLTVSNFTMLLYGYFKPQTSGIHTFFVNADDLLYINFGAGNAFDCCKREDSKFKLGEYVAYDIWHVDSSKNKVSLNLEKDVYYPIRMFFNNIGKDSSLDLSFSVNGAVEHITDFSGYLYSVPDQPDACPAPIGYDTTCK
# Assays:
# Experiment in all cases: glycan array binding signal (z-score within array); higher = stronger binding
# Settings in all cases: glycan notation: IUPAC condensed, linker removed
# [1] = target: Gal(b1-4)GlcNAc(b1-2)[Gal(b1-4)GlcNAc(b1-6)]Man(a1-6)[GlcNAc(b1-4)][Gal(b1-4)GlcNAc(b1-2)Man(a1-3)]Man(b1-4)GlcNAc(b1-4)GlcNAc
# How it was run: (§1)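 Glycan array binding is given as a within-array Z-score, which can be read as non-binding when negative. The arrays, 3228 of them, came from the Consortium for Functional Glycomics database and were retained only where the protein sequence was available. Z-scores were averaged across arrays of the same protein sequence at different concentrations or buffers and across linkers.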
# [2] = target: Gal(b1-4)GlcNAc(b1-2)[Gal(b1-4)GlcNAc(b1-6)]Man(a1-6)[GlcNAc(b1-4)][Gal(b1-4)GlcNAc(b1-2)[Gal(b1-4)GlcNAc(b1-4)]Man(a1-3)]Man(b1-4)GlcNAc(b1-4)[Fuc(a1-6)]GlcNAc
# How it was run: as §1
# [3] = target: Gal(b1-4)GlcNAc(b1-3)Gal(b1-3)GalNAc
# How it was run: as §1
# [4] = target: Gal(b1-4)GlcNAc(b1-3)Gal(b1-3)GlcNAc
# How it was run: as §1
# [5] = target: Gal(b1-4)GlcNAc(b1-3)Gal(b1-4)Glc
# How it was run: as §1
# [6] = target: Gal(b1-4)GlcNAc(b1-3)Gal(b1-4)GlcNAc
# How it was run: as §1
# [7] = target: Gal(b1-4)GlcNAc(b1-3)Gal(b1-4)GlcNAc(b1-2)Man(a1-3)[Gal(b1-4)GlcNAc(b1-3)Gal(b1-4)GlcNAc(b1-2)Man(a1-6)]Man(b1-4)GlcNAc(b1-4)GlcNAc
# How it was run: as §1
# [8] = target: Gal(b1-4)GlcNAc(b1-3)Gal(b1-4)GlcNAc(b1-2)Man(a1-3)[Gal(b1-4)GlcNAc(b1-3)Gal(b1-4)GlcNAc(b1-2)Man(a1-6)]Man(b1-4)GlcNAc(b1-4)[Fuc(a1-6)]GlcNAc
# How it was run: as §1
# [9] = target: Gal(b1-4)GlcNAc(b1-3)Gal(b1-4)GlcNAc(b1-2)[Gal(b1-4)GlcNAc(b1-3)Gal(b1-4)GlcNAc(b1-6)]Man(a1-6)[Gal(b1-4)GlcNAc(b1-3)Gal(b1-4)GlcNAc(b1-2)Man(a1-3)]Man(b1-4)GlcNAc(b1-4)GlcNAc
# How it was run: as §1
# [10] = target: Gal(b1-4)GlcNAc(b1-3)Gal(b1-4)GlcNAc(b1-2)[Gal(b1-4)GlcNAc(b1-3)Gal(b1-4)GlcNAc(b1-6)]Man(a1-6)[Gal(b1-4)GlcNAc(b1-3)Gal(b1-4)GlcNAc(b1-2)Man(a1-3)]Man(b1-4)GlcNAc(b1-4)[Fuc(a1-6)]GlcNAc
# How it was run: as §1
# [11] = target: Gal(b1-4)GlcNAc(b1-3)Gal(b1-4)GlcNAc(b1-3)Gal(b1-4)GlcNAc
# How it was run: as §1
# [12] = target: Gal(b1-4)GlcNAc(b1-3)Gal(b1-4)GlcNAc(b1-3)Gal(b1-4)GlcNAc(b1-2)Man(a1-3)[Gal(b1-4)GlcNAc(b1-3)Gal(b1-4)GlcNAc(b1-3)Gal(b1-4)GlcNAc(b1-2)Man(a1-6)]Man(b1-4)GlcNAc(b1-4)GlcNAc
# How it was run: as §1
# [13] = target: Gal(b1-4)GlcNAc(b1-3)Gal(b1-4)GlcNAc(b1-3)Gal(b1-4)GlcNAc(b1-2)Man(a1-3)[Gal(b1-4)GlcNAc(b1-3)Gal(b1-4)GlcNAc(b1-3)Gal(b1-4)GlcNAc(b1-2)Man(a1-6)]Man(b1-4)GlcNAc(b1-4)[Fuc(a1-6)]GlcNAc
# How it was run: as §1
# [14] = target: Gal(b1-4)GlcNAc(b1-3)Gal(b1-4)GlcNAc(b1-3)Gal(b1-4)GlcNAc(b1-2)[Gal(b1-4)GlcNAc(b1-3)Gal(b1-4)GlcNAc(b1-3)Gal(b1-4)GlcNAc(b1-6)]Man(a1-6)[Gal(b1-4)GlcNAc(b1-3)Gal(b1-4)GlcNAc(b1-3)Gal(b1-4)GlcNAc(b1-2)Man(a1-3)]Man(b1-4)GlcNAc(b1-4)[Fuc(a1-6)]GlcNAc
# How it was run: as §1
# [15] = target: Gal(b1-4)GlcNAc(b1-3)Gal(b1-4)GlcNAc(b1-3)Gal(b1-4)GlcNAc(b1-3)Gal(b1-4)GlcNAc(b1-2)Man(a1-3)[Gal(b1-4)GlcNAc(b1-3)Gal(b1-4)GlcNAc(b1-3)Gal(b1-4)GlcNAc(b1-3)Gal(b1-4)GlcNAc(b1-2)Man(a1-6)]Man(b1-4)GlcNAc(b1-4)GlcNAc
# How it was run: as §1
# [16] = target: Gal(b1-4)GlcNAc(b1-3)Gal(b1-4)GlcNAc(b1-3)Gal(b1-4)GlcNAc(b1-3)Gal(b1-4)GlcNAc(b1-2)Man(a1-3)[Gal(b1-4)GlcNAc(b1-3)Gal(b1-4)GlcNAc(b1-3)Gal(b1-4)GlcNAc(b1-3)Gal(b1-4)GlcNAc(b1-2)Man(a1-6)]Man(b1-4)GlcNAc(b1-4)[Fuc(a1-6)]GlcNAc
# How it was run: as §1
# [17] = target: Gal(b1-4)GlcNAc(b1-3)Gal(b1-4)GlcNAc(b1-3)Gal(b1-4)GlcNAc(b1-3)Gal(b1-4)GlcNAc(b1-2)[Gal(b1-4)GlcNAc(b1-3)Gal(b1-4)GlcNAc(b1-3)Gal(b1-4)GlcNAc(b1-3)Gal(b1-4)GlcNAc(b1-6)]Man(a1-6)[Gal(b1-4)GlcNAc(b1-3)Gal(b1-4)GlcNAc(b1-3)Gal(b1-4)GlcNAc(b1-3)Gal(b1-4)GlcNAc(b1-2)Man(a1-3)]Man(b1-4)GlcNAc(b1-4)[Fuc(a1-6)]GlcNAc
# How it was run: as §1
# [18] = target: Gal(b1-4)GlcNAc(b1-3)Gal(b1-4)GlcNAc(b1-3)Gal(b1-4)GlcNAc(b1-3)Gal(b1-4)GlcNAc(b1-3)Gal(b1-4)GlcNAc(b1-2)Man(a1-3)[Gal(b1-4)GlcNAc(b1-3)Gal(b1-4)GlcNAc(b1-3)Gal(b1-4)GlcNAc(b1-3)Gal(b1-4)GlcNAc(b1-3)Gal(b1-4)GlcNAc(b1-2)Man(a1-6)]Man(b1-4)GlcNAc(b1-4)GlcNAc
# How it was run: as §1
# [19] = target: Gal(b1-4)GlcNAc(b1-3)Gal(b1-4)GlcNAc(b1-3)Gal(b1-4)GlcNAc(b1-3)Gal(b1-4)GlcNAc(b1-3)Gal(b1-4)GlcNAc(b1-2)Man(a1-3)[Gal(b1-4)GlcNAc(b1-3)Gal(b1-4)GlcNAc(b1-3)Gal(b1-4)GlcNAc(b1-3)Gal(b1-4)GlcNAc(b1-3)Gal(b1-4)GlcNAc(b1-2)Man(a1-6)]Man(b1-4)GlcNAc(b1-4)[Fuc(a1-6)]GlcNAc
# How it was run: as §1
# [20] = target: Gal(b1-4)GlcNAc(b1-3)Gal(b1-4)GlcNAc(b1-3)Gal(b1-4)GlcNAc(b1-3)Gal(b1-4)GlcNAc(b1-3)Gal(b1-4)GlcNAc(b1-2)[Gal(b1-4)GlcNAc(b1-3)Gal(b1-4)GlcNAc(b1-3)Gal(b1-4)GlcNAc(b1-3)Gal(b1-4)GlcNAc(b1-3)Gal(b1-4)GlcNAc(b1-6)]Man(a1-6)[Gal(b1-4)GlcNAc(b1-3)Gal(b1-4)GlcNAc(b1-3)Gal(b1-4)GlcNAc(b1-3)Gal(b1-4)GlcNAc(b1-3)Gal(b1-4)GlcNAc(b1-2)Man(a1-3)]Man(b1-4)GlcNAc(b1-4)[Fuc(a1-6)]GlcNAc
# How it was run: as §1
# [21] = target: Gal(b1-4)GlcNAc(b1-3)Gal(b1-4)GlcNAc(b1-3)Gal(b1-4)GlcNAc(b1-3)Gal(b1-4)GlcNAc(b1-3)Gal(b1-4)GlcNAc(b1-3)Gal(b1-4)GlcNAc(b1-2)Man(a1-3)[Gal(b1-4)GlcNAc(b1-3)Gal(b1-4)GlcNAc(b1-3)Gal(b1-4)GlcNAc(b1-3)Gal(b1-4)GlcNAc(b1-3)Gal(b1-4)GlcNAc(b1-3)Gal(b1-4)GlcNAc(b1-2)Man(a1-6)]Man(b1-4)GlcNAc(b1-4)GlcNAc
# How it was run: as §1
# [22] = target: Gal(b1-4)GlcNAc(b1-3)Gal(b1-4)GlcNAc(b1-3)GalNAc
# How it was run: as §1
# [23] = target: Gal(b1-4)GlcNAc(b1-3)Gal(b1-4)GlcNAc(b1-3)[Gal(b1-4)GlcNAc(b1-3)Gal(b1-4)GlcNAc(b1-6)]GalNAc
# How it was run: as §1
# [24] = target: Gal(b1-4)GlcNAc(b1-3)Gal(b1-4)GlcNAc(b1-6)[Gal(b1-3)]GalNAc
# How it was run: as §1
# [25] = target: Gal(b1-4)GlcNAc(b1-3)Gal(b1-4)[Fuc(a1-3)]GlcNAc(b1-3)Gal(b1-4)[Fuc(a1-3)]GlcNAc
# How it was run: as §1
# [26] = target: Gal(b1-4)GlcNAc(b1-3)GalNAc
# How it was run: as §1
# [27] = target: Gal(b1-4)GlcNAc(b1-3)[Fuc(a1-3)GlcNAc(b1-6)]Gal(b1-4)Glc
# How it was run: as §1
# [28] = target: Gal(b1-4)GlcNAc(b1-3)[Gal(b1-4)GlcNAc(b1-6)]Gal(b1-4)GlcNAc
# How it was run: as §1
# [29] = target: Gal(b1-4)GlcNAc(b1-3)[GlcNAc(b1-6)]Gal(b1-4)GlcNAc
# How it was run: as §1
# [30] = target: Gal(b1-4)GlcNAc(b1-6)Gal(b1-4)GlcNAc
# How it was run: as §1
# [31] = target: Gal(b1-4)GlcNAc(b1-6)GalNAc
# How it was run: as §1
# [32] = target: Gal(b1-4)GlcNAc(b1-6)[Gal(b1-3)]GalNAc
# How it was run: as §1
# [33] = target: Gal(b1-4)GlcNAc(b1-6)[Gal(b1-4)GlcNAc(b1-3)]GalNAc
# How it was run: as §1
# [34] = target: Gal(b1-4)GlcNAc6P
# How it was run: as §1
# [35] = target: Gal(b1-6)Gal
# How it was run: as §1
# [36] = target: Gal3S(b1-3)GalNAc
# How it was run: as §1
# [37] = target: Gal3S(b1-3)GlcNAc
# How it was run: as §1
# [38] = target: Gal3S(b1-3)[Fuc(a1-4)]GlcNAc
# How it was run: as §1
binder,measurement,setting,value
B1,glycan array binding signal (z-score),[1],-0.288
same,glycan array binding signal (z-score),[2],-0.301
same,glycan array binding signal (z-score),[3],-0.257
same,glycan array binding signal (z-score),[4],-0.42
same,glycan array binding signal (z-score),[5],-0.156
same,glycan array binding signal (z-score),[6],-0.267
same,glycan array binding signal (z-score),[7],0.073
same,glycan array binding signal (z-score),[8],-0.288
same,glycan array binding signal (z-score),[9],-0.371
same,glycan array binding signal (z-score),[10],-0.341
same,glycan array binding signal (z-score),[11],-0.334
same,glycan array binding signal (z-score),[12],-0.115
same,glycan array binding signal (z-score),[13],-0.345
same,glycan array binding signal (z-score),[14],-0.126
same,glycan array binding signal (z-score),[15],-0.34
same,glycan array binding signal (z-score),[16],-0.155
same,glycan array binding signal (z-score),[17],-0.026
same,glycan array binding signal (z-score),[18],-0.219
same,glycan array binding signal (z-score),[19],-0.231
same,glycan array binding signal (z-score),[20],-0.21
same,glycan array binding signal (z-score),[21],-0.306
same,glycan array binding signal (z-score),[22],-0.177
same,glycan array binding signal (z-score),[23],-0.072
same,glycan array binding signal (z-score),[24],-0.003
same,glycan array binding signal (z-score),[25],-0.254
same,glycan array binding signal (z-score),[26],-0.023
same,glycan array binding signal (z-score),[27],-0.343
same,glycan array binding signal (z-score),[28],-0.186
same,glycan array binding signal (z-score),[29],-0.387
same,glycan array binding signal (z-score),[30],1.2
same,glycan array binding signal (z-score),[31],0.329
same,glycan array binding signal (z-score),[32],-0.098
same,glycan array binding signal (z-score),[33],0.287
same,glycan array binding signal (z-score),[34],-0.305
same,glycan array binding signal (z-score),[35],1.8
same,glycan array binding signal (z-score),[36],-0.415
same,glycan array binding signal (z-score),[37],-0.4
same,glycan array binding signal (z-score),[38],-0.347

# Reference: the supplement of paper PMC8728848
